Switch fluorescence ratio data for 120 sequences are collected here from the supplement of paper PMC10126150.

For the data set, the system named is ATP. In words: switch fluorescence ratio, 500 uM ATP over buffer (Cy3 cluster intensity, sum of 5 cycles each) (fold (ratio)); higher = stronger signal-on switching upon ATP binding; sequences stand for … in TCGTCGGCAGCGTCAGATGTGTATAAGAGACAGTTTTTTTTTTTTTTTTTTTTTTTTT…TC. Conditions: aptamer strand: ATP DNA aptamer (quencher-CACCTGGGGGAGTATTGCGGAGGAAGG + anchor), 100 nM annealed; ATP concentration: 500 uM; one replicate. An outline of the steps: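 Exposure to 500 uM ATP lasted 15 min at 22 °C before imaging, and a selection-buffer image was taken beforehand, for Cy3-labelled switching-strand clusters on a modified Illumina MiSeq flow-cell annealed to 100 nM quencher-labelled ATP aptamer. Five buffer/ATP cycles were run with NaOH stripping and re-annealing between them. The fluorescence ratio per cluster is summed target-cycle over summed buffer-cycle Cy3 intensity, averaged per switch-domain sequence. Clusters outside 100-1000 RFU were excluded.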

Values marked as one replicate rest on one cluster of the flow cell; about a third of the high ones do not repeat.

As for TTTTCGGGG, the switch fluorescence ratio was determined as 0.978.

As to GATAACGTGC, the switch fluorescence ratio came out at 1.03.

Regarding ACGCTCGTAG, the switch fluorescence ratio was 1.06.

AACTGGAGCA: the switch fluorescence ratio came out at 1.22.

Regarding ACGGTAAGGG, the switch fluorescence ratio was found to be 1.12.

Consider GTACGTAGCG, for which the switch fluorescence ratio was determined as 1.06.

Regarding ACCATGGGGC, the switch fluorescence ratio was 1.03.

Consider CTGAGGTCCG, for which the switch fluorescence ratio amounted to 1.

CGTTCTTACA: the switch fluorescence ratio was 1.02.

Consider ACTAAATCC, for which the switch fluorescence ratio worked out at 0.971.

Take TGCTAGGCTG: the switch fluorescence ratio was 1.01.

For TGTCTGTCTG, the switch fluorescence ratio came to 0.952.

With GTTCCTCTTT, the switch fluorescence ratio is 1.06.

AGGGCGTCAG: the switch fluorescence ratio was 0.961.

On to CTTAAGATGT, for which the switch fluorescence ratio came out at 0.984.

On to CGTATGTGTC, for which the switch fluorescence ratio worked out at 1.03.

On to GTGAACATGG, for which the switch fluorescence ratio was 0.967.

In the case of GCTGACGGTA, the switch fluorescence ratio stood at 1.08.

Take CAAACCGTTT: the switch fluorescence ratio is 1.67.

Turning to CGCACTTGCA, the switch fluorescence ratio turned out to be 1.07.

On to ACTGAACCTA, for which the switch fluorescence ratio is 1.18.

With CGTTCAAGGG, the switch fluorescence ratio worked out at 0.985.

Consider TAATGAGTAC, for which the switch fluorescence ratio is 1.

For the sequence CTCACTGCGA, the switch fluorescence ratio is 1.67.

GCTCTGGTTT: the switch fluorescence ratio amounted to 0.976.

For the sequence AGCGGGGTCT, the switch fluorescence ratio was 1.02.

Turning to TACCGAAGCC, the switch fluorescence ratio is 1.9.

Take TGTGCTCGGG: the switch fluorescence ratio was 0.998.

For GCTATCCTTA, the switch fluorescence ratio was determined as 0.992.

In the case of CCCACTTTGG, the switch fluorescence ratio was 1.12.

As to CGTGGAACAA, the switch fluorescence ratio came out at 1.04.

Take TAGTGCGGGC: the switch fluorescence ratio amounted to 1.01.

As for TCTATGACGT, the switch fluorescence ratio is 0.986.

Take GGAAGGATCG: the switch fluorescence ratio stood at 0.98.

For CAATAATTCG, the switch fluorescence ratio is 1.

In the case of TGGAAATCAC, the switch fluorescence ratio was found to be 1.05.

In the case of TCATTCGCGG, the switch fluorescence ratio came out at 1.8.

As for AATTATACAA, the switch fluorescence ratio came out at 0.989.

Turning to GGCTGGGTCC, the switch fluorescence ratio came out at 0.959.

With CAGACATCT, the switch fluorescence ratio was determined as 1.04.

In the case of TCCACGTATT, the switch fluorescence ratio turned out to be 1.23.

With TCAATCCATC, the switch fluorescence ratio was found to be 0.955.

As for AGAGTCATCT, the switch fluorescence ratio is 0.979.

For AACATTTGGT, the switch fluorescence ratio worked out at 0.973.

Turning to CTCGTACTGG, the switch fluorescence ratio is 1.02.

With CGCATATCCG, the switch fluorescence ratio turned out to be 1.16.

Consider CAGTTTTCAG, for which the switch fluorescence ratio was 0.977.

In the case of ACGGGATTAC, the switch fluorescence ratio turned out to be 1.45.

Turning to CCCTTAGGTA, the switch fluorescence ratio came out at 1.01.

TTTGCTAGCC: the switch fluorescence ratio worked out at 0.982.

TGCGGTTAG: the switch fluorescence ratio stood at 0.944.

For CAGGGCGGAG, the switch fluorescence ratio was found to be 1.03.

Turning to TGGTCACTTT, the switch fluorescence ratio was determined as 0.996.

For TCCCGAGTTT, the switch fluorescence ratio worked out at 1.05.

Turning to AGGCCAAGTT, the switch fluorescence ratio came out at 1.02.

Take TACTAAGACC: the switch fluorescence ratio was 1.01.

As for TTTTTAACCA, the switch fluorescence ratio was determined as 0.985.

Consider GAGGCTTGAC, for which the switch fluorescence ratio is 0.978.

Regarding AATCCATTT, the switch fluorescence ratio came to 0.97.

Take CTGTGCGTAA: the switch fluorescence ratio came to 1.43.

Regarding TCTTTGTCTT, the switch fluorescence ratio worked out at 1.02.

Regarding ATGATCTTGG, the switch fluorescence ratio amounted to 1.02.

As to TTCGATTTGT, the switch fluorescence ratio was 0.999.

With TCCCCTGGAC, the switch fluorescence ratio amounted to 1.1.

Turning to AACAATGTTT, the switch fluorescence ratio stood at 0.987.

Consider CCAGACACGC, for which the switch fluorescence ratio is 1.09.

With ATGCCTATCG, the switch fluorescence ratio is 0.958.

Turning to ATATGGTG, the switch fluorescence ratio turned out to be 0.988.

Turning to CGGTCATTCT, the switch fluorescence ratio came out at 0.974.

On to AGTCTTTCTC, for which the switch fluorescence ratio was 1.02.

Consider GAATCATACT, for which the switch fluorescence ratio is 1.

Take AGATATTTAA: the switch fluorescence ratio is 1.

Regarding ATGAGAGAGT, the switch fluorescence ratio is 1.05.

In the case of TAGGCCAATG, the switch fluorescence ratio worked out at 1.01.

As to TAGAGTAATG, the switch fluorescence ratio came out at 1.02.

As for CGACGGAGCG, the switch fluorescence ratio was 1.13.

CCTGTTCGAG: the switch fluorescence ratio came to 0.95.

Turning to GGGCAGAGCT, the switch fluorescence ratio was found to be 0.995.

As for ACCAATAGAT, the switch fluorescence ratio turned out to be 1.

For TTCATCTAGC, the switch fluorescence ratio was 1.04.

Turning to GCTCTGGCCT, the switch fluorescence ratio came to 1.04.

In the case of AGGGAGAGAA, the switch fluorescence ratio is 0.999.

On to CTCTCGGGAA, for which the switch fluorescence ratio came to 1.11.

As for CATGGTCTGC, the switch fluorescence ratio stood at 0.964.

Regarding TCCAAGATCT, the switch fluorescence ratio worked out at 1.03.

With CCTCACAC, the switch fluorescence ratio amounted to 1.21.

With GGAGCTTCTT, the switch fluorescence ratio turned out to be 1.03.

For the sequence CGGGCTACTG, the switch fluorescence ratio worked out at 1.12.

Regarding CTGTGAACAG, the switch fluorescence ratio amounted to 1.03.

For GTTTCATTAG, the switch fluorescence ratio is 1.02.

Take TCCGGGCGCC: the switch fluorescence ratio is 1.04.

For the sequence CTCTGCAGGA, the switch fluorescence ratio was 2.3.

For GTGAGATGCG, the switch fluorescence ratio came to 0.996.

In the case of AAGATTCCTA, the switch fluorescence ratio is 1.

As for TTATTCGCT, the switch fluorescence ratio was determined as 1.02.

As to CTCTACGTTA, the switch fluorescence ratio is 1.27.

Consider CCGCTCAAGG, for which the switch fluorescence ratio was found to be 1.19.

Take TTGATTGCA: the switch fluorescence ratio amounted to 0.988.

For the sequence AGCACTTTCC, the switch fluorescence ratio was 1.74.

As to CGATCCAAAC, the switch fluorescence ratio is 1.78.

With TGGCTCACAT, the switch fluorescence ratio was determined as 1.04.

Regarding GCTATAATCT, the switch fluorescence ratio is 0.972.

Turning to CGGCGCTCC, the switch fluorescence ratio came to 1.46.

With AGAGATATGG, the switch fluorescence ratio was determined as 0.975.

On to CGCAGGAGTG, for which the switch fluorescence ratio worked out at 1.05.

For the sequence CGCCGGTAAT, the switch fluorescence ratio came to 1.11.

For the sequence ACATTGGTAC, the switch fluorescence ratio is 1.08.

Regarding GTCAACTGGT, the switch fluorescence ratio amounted to 1.02.

Consider TATCATCCC, for which the switch fluorescence ratio amounted to 1.08.

Regarding AGAATGACGG, the switch fluorescence ratio came out at 0.997.

Regarding TACCATGGGC, the switch fluorescence ratio came to 0.971.

In the case of AGTGTGACGG, the switch fluorescence ratio turned out to be 1.02.

For GGAAGTGCGG, the switch fluorescence ratio turned out to be 0.995.

CACAGAGGGC: the switch fluorescence ratio turned out to be 0.979.

Consider CTGCTTGCAA, for which the switch fluorescence ratio is 1.04.

Take GGTTTAAGAC: the switch fluorescence ratio worked out at 1.

In the case of CGTGTTTAAC, the switch fluorescence ratio was found to be 0.979.

On to CGGGGTGCCC, for which the switch fluorescence ratio was 1.02.

Consider GTACAGAGTG, for which the switch fluorescence ratio amounted to 1.04.

Turning to AGTTCCCCTG, the switch fluorescence ratio turned out to be 1.13.
